These results are taken from ChEMBL document CHEMBL4888484, “Replenishing the malaria drug discovery pipeline: Screening and hit evaluation of the MMV Hit Generation Library 1 (HGL1) against asexual blood stage Plasmodium falciparum ,using a nano luciferase reporter read-out” (2022).

The campaign covered roughly 150,000 compounds. About 540 (0.36%) showed an effect of 50% or more. The list shows a part of the results.

A word on the % Inhibition: it is the relative decrease from the control value, in per cent.

The test system of the assay is Plasmodium falciparum. Description: Primary screen in NF54 nanoGlo assay, in single point, at 2uM, 72h; a lower Z score goes with more inhibition. The format is functional, Erythrocyte. As to conditions: timepoint 72 hour.
For `CCc1sc(C(C)NC(=O)[C@@H](O)c2ccccc2)cc1C` (stereo not given in full), the “% Inhibition” value was -12% and the Z score stood at 2.19.
Regarding `COc1ccc(NC(=O)Nc2cnn(Cc3cn4ccccc4n3)c2)cc1`, the “% Inhibition” value is given as -18% and the Z score turned out to be 1.59.
The like results for `Cc1nc(C)c(CN2CCN(C)[C@]3(CCC(=O)N(CC4CC4)CC3)C2)s1` were, in that order, 2% and -0.16.
For `O=C(Cc1ncccc1F)NC[C@@H]1CCCC[C@H]1O`, the “% Inhibition” value is reported as -1% and the Z score is given as 0.1.
As for `Cc1ccc(Cl)cc1NC(=O)[C@H]1CCCN(c2nccc3sccc23)C1`, the “% Inhibition” value is reported as -1% and the Z score came to 0.21.
For the compound `Cc1ccsc1C(=O)N1CCC2(CC1)CCC(O)(CN(C)C)CC2`, the “% Inhibition” value is on record as -13% and the Z score is reported as 2.41.
Taken in the same sequence, the figures for `CC[C@@H](CO)NS(=O)(=O)c1cc(C)ccc1C` were 3% and -0.66.
Taken in the same sequence, the figures for `C=CCC[C@H](NCC#N)c1ccccc1` were -8% and 0.96.
On to `Cc1nn(-c2ccc(F)cc2)c2nc(N3CCCN(C(=O)c4ccc(N(C)C)cc4)CC3)sc12`, for which the “% Inhibition” value was -10% and the Z score was determined as 1.13.
Taken in the same sequence, the figures for `Cc1cc(N2CCN(c3cc(N4CCCC4)ncn3)CC2)n[nH]1` were 3% and -0.34.
For the compound `O=C(N[C@@H]1C[C@H](Cn2cc(C3CC3)nn2)[C@@H](O)[C@H]1O)c1ccc2c(c1)OCO2`, the “% Inhibition” value was 1% and the Z score was -0.19.
On to `O=C(NCc1ccc(F)cc1F)[C@@H]1CCCn2c(-c3ccccc3)cnc21`, for which the “% Inhibition” value was 3% and the Z score is given as -0.54.
As for `CC[C@@H](C(=O)N1CCCN(S(=O)(=O)N2CCCC2)CC1)n1cccn1`, the “% Inhibition” value is -29% and the Z score worked out at 2.57.
As to `Nc1ccc(F)cc1-c1nc(C2CC2)no1`, the “% Inhibition” value turned out to be 13% and the Z score is -1.69.
For the compound `CO[C@H]1COCC[C@@H]1NC(=O)c1ccc(C)s1`, the “% Inhibition” value is 0% and the Z score is -0.01.
As for `CC1(C)COCCC[C@H]2CN(C(=O)Nc3cccc(Cl)c3)CC[C@H]2CC(=O)N(CC2CCC(F)(F)CC2)C[C@@H]1O`, the “% Inhibition” value is recorded as -3% and the Z score is recorded as 0.49.
As for `Cc1cc(C)n(CCNS(=O)(=O)c2c(C)n[nH]c2C)n1`, the “% Inhibition” value is given as 0% and the Z score came out at 0.05.
For the compound `CN=C(NC1CCCCC1)N1CCCC1`, the “% Inhibition” value is -13% and the Z score was determined as 1.28.
As for `CC(C)N1CCN2C(=O)c3ccccc3OCC[C@@H]3CC[C@H](O)[C@@H](CNC(=O)[C@@H]2C1)O3`, the “% Inhibition” value was found to be 3% and the Z score was -0.4.
In the case of `Cc1ccc(CNC(=O)c2c(C)n[nH]c2C(C)C)c(C)c1`, the “% Inhibition” value is recorded as -16% and the Z score is 1.65.
`COc1nccc(Oc2ccccc2CN(C)C)c1C#N`: the “% Inhibition” value is listed as 6% and the Z score was -0.82.
Taken in the same sequence, the figures for `C[C@@H](c1cc2ccccc2[nH]1)N(C)CCC(=O)Nc1nccs1` were -21% and 2.67.
Consider `COc1cccc(OCCCc2ccc(S(N)(=O)=O)cc2F)c1`, for which the “% Inhibition” value was determined as 12% and the Z score is -1.64.
Turning to `CCOC(=O)c1cn(CCS(=O)(=O)NC)cc(Oc2ccccc2)c1=O`, the “% Inhibition” value is -17% and the Z score came to 2.2.
For the compound `c1ccc(-n2nccc2[C@H]2c3nc[nH]c3CCN2Cc2ccccn2)cc1`, the “% Inhibition” value is given as -10% and the Z score is reported as 1.44.
Consider `C=C(C)CN(CC)S(=O)(=O)N1CCCCC1`, for which the “% Inhibition” value is given as -12% and the Z score is 1.44.
The like results for `Cc1ccc(Cl)c(S(=O)(=O)NCCC(N)=O)c1` were, in that order, 11% and -1.04.
Consider `CCC(C)N1C(=O)C(CC(C)C)NC12CCN(S(=O)(=O)c1ccc(C)cc1)CC2` (stereo not given), for which the “% Inhibition” value is listed as -7% and the Z score was 1.31.
Turning to `Fc1cc(Cl)cnc1N1CCC2(CCOCC2)C1`, the “% Inhibition” value was determined as 34% and the Z score is on record as -1.13.
As to `CN(C)c1ccc(N2CCC(Nc3ccc(F)cc3F)CC2)cc1`, the “% Inhibition” value was -12% and the Z score is listed as 1.98.
Take `Cc1ncoc1C(=O)N[C@H](c1cccnc1)C(F)(F)F`: the “% Inhibition” value is on record as -4% and the Z score was 0.55.
With `N[C@H]1CN(C(=O)C2CCCCCC2)C[C@@H]1C1CC1`, the “% Inhibition” value is given as 14% and the Z score was -2.58.
Taken in the same sequence, the figures for `CN(C)c1cccc(C(=O)NC2CCS(=O)(=O)CC2)c1` were -10% and 1.36.
The like results for `CO[C@H]1CCOC[C@@H]1NC(=O)c1cc(-c2c(C)nn(C)c2C)nn1C` were, in that order, -4% and 0.79.
In the case of `O=C(O)C1C2C=CC(C2)C1C(=O)N1CCN(C(c2ccccc2)c2ccccc2)CC1` (stereo not given), the “% Inhibition” value is recorded as -7% and the Z score was found to be 1.19.
Turning to `C#CC[C@H](OC(=O)c1cccn1C)C1CC1`, the “% Inhibition” value was 36% and the Z score is recorded as -5.54.
For `CC(C)(O)[C@H]1CCN(Cc2ccc(Cl)o2)C1`, the “% Inhibition” value is recorded as -10% and the Z score is given as 1.38.
Consider `Cc1noc(C)c1CCC(=O)Nc1nc(CC(C)C)n[nH]1`, for which the “% Inhibition” value is -13% and the Z score turned out to be 1.57.
Consider `CC[C@@H](C(=O)Nc1cccc(Cl)c1C)n1c(=O)c(-c2ccccc2NC(C)=O)nc2ccccc21`, for which the “% Inhibition” value is on record as -17% and the Z score was 3.19.
Turning to `COc1cc(NCC2(CO)CCC2)nc(N)n1`, the “% Inhibition” value is 0% and the Z score is on record as -0.01.
As to `CC(C)COC[C@H](NC(=O)CC1(C(=O)O)Cc2ccccc2C1)c1ccco1`, the “% Inhibition” value was 4% and the Z score is -0.49.
`CC(C)C[C@@]1(C)CC(=O)N(Cc2ncc(C(C)C)o2)C1=O`: the “% Inhibition” value is on record as -1% and the Z score turned out to be 0.22.
Turning to `O=C(NCCc1cnn(-c2ccccc2)c1)[C@H]1C[C@H](F)CN1`, the “% Inhibition” value is -2% and the Z score is 0.19.
As to `Cc1cccc(Nc2nnc(CC(=O)Nc3ccc(OC(F)(F)F)cc3)s2)c1`, the “% Inhibition” value was -4% and the Z score amounted to 0.56.
With `CC(C)CCc1nnc(NCc2ccco2)o1`, the “% Inhibition” value was -14% and the Z score stood at 1.63.
As for `CCn1ccc2cc(S(=O)(=O)N3CCC[C@H](C(=O)NCCCN(C)Cc4ccccc4)C3)ccc21`, the “% Inhibition” value is -20% and the Z score is on record as 3.13.
The like results for `Cc1ccc(-c2noc(CCCC(=O)N3CCCC[C@H]3c3noc(COCC4CC4)n3)n2)cc1` were, in that order, -3% and 0.44.
`CCN1CCNC(=O)[C@@H]1CC(=O)N(Cc1ccco1)C(C)(C)CO`: the “% Inhibition” value was determined as 7% and the Z score was -0.99.
In the case of `COCC1CN(C(=O)CN2Cc3c(cnn3-c3ccccc3)C2=O)C1`, the “% Inhibition” value was 16% and the Z score is -2.03.
Turning to `O[C@H]1CN(c2nc(-c3ccccc3)cs2)CC[C@@H]1N1CCOCC1`, the “% Inhibition” value was -11% and the Z score is recorded as 2.19.
The like results for `CC[C@@H](C(=O)N1CC(N2CCc3sccc3C2)C1)c1ccccc1` were, in that order, -8% and 1.47.
Turning to `CCn1nc(C)c(CNc2nnc([C@@H]3Cc4ccccc4O3)o2)c1C`, the “% Inhibition” value was -12% and the Z score is reported as 2.25.
`Cc1nnc([C@H](C)OC(=O)c2cccc(-n3ccnn3)c2)o1`: the “% Inhibition” value is -4% and the Z score is recorded as 0.34.
Taken in the same sequence, the figures for `CN(Cc1cc[nH]n1)C(=O)c1ccc(CN2CCc3ccccc3C2)cc1` were -20% and 2.16.
On to `Cc1nc2ccc3c(c2s1)CCCC3`, for which the “% Inhibition” value was -1% and the Z score was 0.27.
Consider `C[C@H](C(=O)Nc1nc2c(ccc3ccccc32)s1)C1CCOCC1`, for which the “% Inhibition” value came out at 36% and the Z score is on record as -4.6.
In the case of `CC[C@H](C)C(=O)NCCC(=O)Nc1cc(Br)ccc1C`, the “% Inhibition” value is -9% and the Z score was found to be 1.4.
Turning to `CCC[C@H]1CN(c2nc3cc(C(=O)OC)ccc3n2C)C[C@@H]1NS(C)(=O)=O`, the “% Inhibition” value was determined as 16% and the Z score is on record as -2.05.
As for `NC1(c2noc([C@@H]3CCCO3)n2)CCCCCC1`, the “% Inhibition” value is 34% and the Z score is given as -1.29.
As for `O=C(Oc1ccc(N(C(=O)c2ccccc2)S(=O)(=O)c2ccccc2)c2ccccc12)c1ccccc1`, the “% Inhibition” value is given as -3% and the Z score was found to be 0.35.
On to `CCCN1CCN(CCCNC(=O)[C@H]2CCCN(S(=O)(=O)c3ccc4c(ccn4C)c3)C2)CC1`, for which the “% Inhibition” value is on record as -11% and the Z score is on record as 2.07.
Take `O=S(=O)(Nc1nc2ccccc2nc1Nc1ccc2cn[nH]c2c1)c1ccc2ccccc2c1`: the “% Inhibition” value is -14% and the Z score stood at 1.85.
Turning to `CCc1cnc(C(C)NC2CCCc3occc32)s1` (stereo not given), the “% Inhibition” value is 3% and the Z score was -0.54.
Consider `O=C(CC1(O)CCCCC1)NCCC1=CCOCC1`, for which the “% Inhibition” value is -10% and the Z score is listed as 1.14.
`O=C1CN(S(=O)(=O)c2cccc3nsnc23)CCCN1`: the “% Inhibition” value is given as -8% and the Z score is 1.57.
`CCCc1nc(C)cc(N2CCC[C@]3(CC2)CN(C)C(=O)O3)n1`: the “% Inhibition” value was -15% and the Z score came out at 2.07.
Turning to `CCOc1cc(C(=O)N2CCC3CCCCC32)ccn1` (stereo not given), the “% Inhibition” value is -12% and the Z score is 1.57.
Consider `COc1ccc(-n2nc(C)c3c(O)c4c(nc32)CCCC4)cc1`, for which the “% Inhibition” value is listed as -3% and the Z score is listed as 0.33.
Consider `Cc1cccc(S(=O)(=O)N2CC(Cn3ccnn3)C2)c1`, for which the “% Inhibition” value is reported as 2% and the Z score is listed as -0.44.
The like results for `Cc1ccccc1NC(=O)Cn1c(=O)cnc2cc(C(=O)NC3CCCC3)ccc21` were, in that order, -15% and 1.7.
Regarding `O=C(CNC(=O)NCCc1cccc(F)c1F)NC1CC1`, the “% Inhibition” value stood at 29% and the Z score was -3.22.
With `COCCC1(CNC(=O)NCc2cc(C)no2)CCCC1`, the “% Inhibition” value is -6% and the Z score is on record as 0.95.
As to `Cc1ccccc1C(=O)Nc1cnc(-n2ccnc2C)nc1`, the “% Inhibition” value was -6% and the Z score is on record as 0.98.
Taken in the same sequence, the figures for `C[C@H]1COC2(CCN(c3ncnc4c3oc3ccccc34)CC2)O1` were 1% and -0.19.
The like results for `Cc1ccc(-c2ccccc2CN2C[C@H]3CC[C@@H](C2)N(C)C3=O)o1` were, in that order, -6% and 1.03.
Consider `CCC(=O)Nc1cc2c(cc1OC)[C@H](c1ncnn1CC)CC(=O)N2`, for which the “% Inhibition” value was -11% and the Z score is 2.1.
On to `CCC(CC)C(=O)c1c[nH]c(C(=O)NC2CCCCCC2)c1`, for which the “% Inhibition” value turned out to be 28% and the Z score is -3.57.
The like results for `CCn1cc(NC(=O)Nc2nccn(C)c2=O)cn1` were, in that order, -12% and 2.19.
Consider `CC(C)=CCN1C[C@@H]2CC[C@H]1CN(C(=O)c1ccc3[nH]c(CO)nc3c1)C2`, for which the “% Inhibition” value was -3% and the Z score is on record as 0.32.
Consider `CNc1nnc(COCc2ccccc2)o1`, for which the “% Inhibition” value is listed as -1% and the Z score stood at 0.17.
Turning to `O=C(Cc1cccnc1)N1CC(F)(F)C[C@H]1c1nncn1Cc1ccc(F)cc1`, the “% Inhibition” value amounted to 0% and the Z score is 0.03.
Consider `O=C(c1cnn(CCC(F)(F)F)c1)N1CC[C@H](c2cccnc2)C1`, for which the “% Inhibition” value was 4% and the Z score is -0.69.
With `O=C(O)c1cccnc1NCCc1cccc(F)c1`, the “% Inhibition” value is given as -10% and the Z score was 1.78.
On to `Cc1cc(CN2CCN(C3CCCC3)C[C@@H](O)C2)on1`, for which the “% Inhibition” value worked out at 16% and the Z score is -2.09.
For `Cc1oc(-c2ccc(-c3ccccc3)cc2)nc1CN1CCC[C@H](CN2CCCC2=O)C1`, the “% Inhibition” value is given as -17% and the Z score was found to be 1.79.
